# For some of these results: Most of the hits are listed elsewhere, so they are rarer here than in the full data. Records with an inconclusive call do not appear. The entries are a selection whose mix differs from that of the whole data set. The source made the active and inactive calls. Rule for the calls, unless noted: active = hit-call score of the fitted dose curve at least 0.9, where 1 is the maximum; inactive = score below 0.9.
# Legend:
# [1] = molecular target: Peroxisome proliferator-activated receptor gamma (Homo sapiens) (UniProt P37231); test: OT_PPARg_PPARgSRC1_1440: Odyssey Thera (OT) 24-hour Protein-Complementation Assay for Peroxisome Proliferator-activated Receptor Gamma/ SRC-1 Co-activator (AID 2283388; active = hit-call score of the fitted dose curve at least 0.9, where 1 is the maximum;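 note: nuclear to cytoplasmic ratio of reconstituted Venus YFP fluorescence in fixed imaged cells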)
# Procedure, shortened: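 Cells carrying the PPARg/SRC-1 fragment-complementation reporter receive compound for 24 hours, are fixed and counterstained with Draq5, then imaged. Increased nuclear relative to cytoplasmic YFP fluorescence above DMSO baseline indicates binding activity.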
# [2] = read-out: ABC Transporter (ABCC3), ABCC3 (gene 8714); test: LTEA_HepaRG_ABCC3: Life Technologies and Expression Analysis (LTEA) Assay for ABC Transporter (ABCC3) using HepaRG (AID 2283462); details: actives raise or lower the signal; mRNA level, 48 h
# Procedure, shortened: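 Transcriptional change of ABCC3 in HepaRG after 48 h treatment, determined by qRT-PCR normalized to endogenous controls. Concentrations spanned eight half-log steps to 100 uM in 0.5% DMSO.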
# [3] = read-out: JUN Transcription Factor, JUN (gene 3725); test: LTEA_HepaRG_JUN: Life Technologies and Expression Analysis (LTEA) Assay for JUN Transcription Factor using HepaRG (AID 2283513); details: actives raise or lower the signal; mRNA level, 48 h
# Procedure, shortened: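 Human HepaRG liver cells receive test chemicals in 0.5% DMSO for 48 h across an eight-point range topping at 100 uM. Expression changes in JUN are scored in both directions against the DMSO vehicle.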
# [4] = molecular target: Bile acid receptor (Homo sapiens) (UniProt Q96RI1); test: OT_FXR_FXRSRC1_0480: Odyssey Thera (OT) 8-hour HEK293T Protein-Complementation Assay for Farnesoid X receptor/SRC-1 Co-activator (AID 2283383; active = hit-call score of the fitted dose curve at least 0.9, where 1 is the maximum)
# Procedure, shortened: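 Co-activator recruitment to FXR was measured in living HEK293T cells, where interaction of the two fused partners restored an active fluorescent reporter. Signal gain after 8 h treatment was referenced to DMSO.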
# [5] = read-out: Tumor necrosis factor receptor superfamily member 6 (Homo sapiens) (UniProt P25445); test: LTEA_HepaRG_FAS: Life Technologies and Expression Analysis (LTEA) Assay for Fas cell surface death receptor (FAS) using HepaRG (AID 2283447); details: actives raise or lower the signal; mRNA level, 48 h
# Procedure, shortened: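 Differentiated HepaRG cells in serum-free induction medium were exposed 48 h to 8 half-log concentrations up to 100 uM in 0.5% DMSO, in duplicate. FAS mRNA was measured by qRT-PCR normalised to ACTB, GAPDH and POLR2A; bidirectional fit versus DMSO.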
# [6] = molecular target: Retinoic acid receptor RXR-alpha (Homo sapiens) (UniProt P19793); test: OT_NURR1_NURR1RXRa_1440: Odyssey Thera (OT) 24-hour HEK293T Protein Complementation Assay for Nurr1/retinoid X receptor (RXR) (AID 2283386; active = hit-call score of the fitted dose curve at least 0.9, where 1 is the maximum)
# Procedure, shortened: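 Measured as fluorescence from a reconstituted split reporter, this 24 h HEK293T complementation assay scores compound-induced gain of Nurr1/RXRα association relative to DMSO.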
# [7] = read-out: Apoptosis regulator Bcl-2 (Homo sapiens) (UniProt P10415); test: LTEA_HepaRG_BCL2: Life Technologies and Expression Analysis (LTEA) Assay for Bcl-2 gene using HepaRG (AID 2283475); details: actives raise or lower the signal; mRNA level, 48 h;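 note: BCL2 transcript by TaqMan qRT-PCR normalised to ACTB GAPDH and POLR2A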
# Procedure, shortened: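 Expression change of BCL2 mRNA in HepaRG after 48 h dosing, quantified by TaqMan qRT-PCR against three endogenous controls. Concentration-response used eight points up to 100 uM, vehicle 0.5% DMSO.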
# [8] = molecular target: Retinoic acid receptor RXR-alpha (Homo sapiens) (UniProt P19793); test: OT_NURR1_NURR1RXRa_0480: Odyssey Thera (OT) 8-hour HEK293T Protein Complementation Assay for Nurr1/retinoid X receptor (RXR) (AID 2283385; active = hit-call score of the fitted dose curve at least 0.9, where 1 is the maximum)
# Procedure, shortened: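 Compounds are applied to HEK293T cells carrying Nurr1 and RXRα linked to reporter fragments. After 8 h, fluorescence intensity reports heterodimer formation, with DMSO as baseline.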
# [9] = read-out: flavin-containing dimethylaniline monooxygenases 3 (FMO3), FMO3 (gene 2328); test: LTEA_HepaRG_FMO3: Life Technologies and Expression Analysis (LTEA) Assay for flavin-containing dimethylaniline monooxygenases 3 (FMO3) using HepaRG (AID 2283453); details: actives raise or lower the signal; mRNA level, 48 h
# Procedure, shortened: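 HepaRG, 48 h exposure, 8-pt half-log series from 100 uM, 0.5% DMSO vehicle, duplicates; FMO3 transcript by Fluidigm TaqMan qRT-PCR, housekeeping-normalized; gain/loss fit vs DMSO.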
# [10] = read-out: Forkhead box O1 (FOXO1), FOXO1 (gene 2308); test: LTEA_HepaRG_FOXO1: Life Technologies and Expression Analysis (LTEA) Assay for Forkhead box O1 (FOXO1) using HepaRG (AID 2283456); details: actives raise or lower the signal; mRNA level, 48 h
# Procedure, shortened: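 Differentiated HepaRG cells, in serum-free induction medium with 0.5% DMSO, exposed 48 h in duplicate to 8-point half-log series from 100 uM. FOXO1 mRNA measured by TaqMan qRT-PCR, normalized to ACTB, GAPDH, POLR2A; bidirectional fit versus DMSO.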
# [11] = CEETOX_H295R_TESTO: CeeTox H295R High-throughput Steroidogenesis Assay for Testosterone (TESTO) (AID 2283457); details: actives raise or lower the signal
# Procedure, shortened: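 Steroidogenesis in H295R cells following OECD 456 with minor changes; 48 h exposure. Medium testosterone by HPLC-MS/MS, DMSO as baseline, with MTT viability run in parallel.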
# [12] = molecular target: Nucleoli Translocation, AR (gene 367) (UniProt P10275); test: UPITT_HCI_U2OS_AR_TIF2_Nucleoli_Antagonist: University of Pittsburgh U2OS Androgen Receptor-Transcriptional Intermediary Factor 2 (AR-TIF2) Antagonism High Content Imaging Assay for Nucleoli Translocation (AID 2283997; active = hit-call score of the fitted dose curve at least 0.9, where 1 is the maximum)
# Procedure, shortened: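 U2OS cells co-expressing red-fluorescent-tagged human AR and green-fluorescent-tagged TIF2, imaged by high-content microscopy for nucleolar red fluorescence. Antagonist mode against DHT; primary screen at 20 uM final (0.2% DMSO).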
# [13] = STM_H9_OrnithineISnorm_perc: Stemina devTOX quickPredict H9 human embryonic stem cell (hESC)-based Assay for Ornithine (ORN) Metabolite Biomarker, Normalized (AID 2283712);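 note: ornithine released into spent medium during last day measured by mass spectrometry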
# Procedure, shortened: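 Cells: undifferentiated H9 hESC. Dosing: 72 h, media replaced every 24 h. Sample: final 24-h conditioned media, 40% acetonitrile. Read: UPLC-HRMS ornithine area vs 13C standard, % DMSO control.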
# [14] = CEETOX_H295R_OHPROG: CeeTox H295R High-throughput Steroidogenesis Assay for OH-Progesterone (OHPROG) (AID 2283435); details: actives raise or lower the signal;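 note: human adrenal H295R cells primed 48 h with 10 µM forskolin; 17alpha-hydroxyprogesterone secreted into medium measured by HPLC-MS/MS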
# [15] = CEETOX_H295R_ESTRADIOL: CeeTox H295R High-throughput Steroidogenesis Assay for Estradiol (AID 2283440); details: actives raise or lower the signal;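 note: estradiol secreted into medium quantified by LC-MS/MS after dansyl derivatisation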
# Procedure, shortened: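 Readout is estradiol in conditioned medium, quantified by reverse-phase HPLC-MS/MS against a 7-point standard curve. Cells: H295R, forskolin-stimulated, then dosed 48 h in 0.1% DMSO; activity fitted in both directions relative to DMSO.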
# [16] = molecular target: Peroxisome proliferator-activated receptor gamma (Homo sapiens) (UniProt P37231); test: OT_PPARg_PPARgSRC1_0480: Odyssey Thera (OT) 8-hour Protein-Complementation Assay for Peroxisome Proliferator-activated Receptor Gamma / SRC-1 Co-activator (AID 2283387; active = hit-call score of the fitted dose curve at least 0.9, where 1 is the maximum;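 note: nuclear to cytoplasmic split Venus YFP fluorescence ratio reporting PPARg SRC-1 interaction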)
# Procedure, shortened: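 Split-YFP (IFP1/IFP2) PPARg/SRC-1 reporter, HEK293T, 37 °C, 5% CO2; 8 h compound; formaldehyde fix + Draq5; high-content imaging, N/C ratio, ≥350 cells/image, positive direction vs DMSO.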
# [17] = CEETOX_H295R_OHPREG: CeeTox H295R High-throughput Steroidogenesis Assay for OH-Pregnenolone (OHPREG) (AID 2283434); details: actives raise or lower the signal
# [18] = CEETOX_H295R_CORTIC: CeeTox H295R High-throughput Steroidogenesis Assay for Corticosterone (CORTIC) (AID 2283437); details: actives raise or lower the signal;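 note: corticosterone secreted into medium quantified by mass spectrometry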
# Procedure, shortened: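 H295R adrenal cells prestimulated 48 hours with 10 uM forskolin, then exposed 48 hours to chemical in 0.1% DMSO. Corticosterone in medium measured by HPLC-MS/MS after MTBE extraction; MTT viability in the same wells; bidirectional fit versus DMSO.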
# [19] = Tanguay_ZF_120hpf_NC_legacy: (Legacy) Oregon State University Tanguay Lab 120 Hour Post-fertilization zebrafish Assay for Notochord and Tail Malformation (AID 2283656; active = hit-call score of the fitted dose curve at least 0.9, where 1 is the maximum)
# Procedure, shortened: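 Dechorionated 5D zebrafish, 1/well from 6 hpf; static exposure to 120 hpf, 28C, sealed, dark; final DMSO 0.64% v/v. NC scored binary (present/absent); dead embryos not scored. Fit vs DMSO baseline, gain direction.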
# [20] = CEETOX_H295R_ANDR: CeeTox H295R High-throughput Steroidogenesis Assay for Androstenedione (ANDR) (AID 2283436); details: actives raise or lower the signal
# Procedure, shortened: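 H295R cells, following OECD 456 with minor changes, exposed to chemicals for 48 h. Androstenedione in the medium was quantified by HPLC-MS/MS after MTBE extraction. Fitting was bidirectional versus DMSO; chemicals were diluted until MTT viability was ≥70%.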
# [21] = CEETOX_H295R_CORTISOL: CeeTox H295R High-throughput Steroidogenesis Assay for Cortisol (AID 2283438); details: actives raise or lower the signal;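 note: cortisol secreted into medium quantified by LC-MS/MS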
# Procedure, shortened: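 Human adrenocortical H295R cells (passage ≤10) received test chemicals for 48 h after forskolin priming. Secreted cortisol was measured by LC-MS/MS.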
# [22] = CEETOX_H295R_DOC: CeeTox H295R High-throughput Steroidogenesis Assay for DOC (AID 2283439); details: actives raise or lower the signal
# Procedure, shortened: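 Secreted DOC was quantified from H295R media by HPLC-MS/MS after 48 h chemical exposure following 48 h forskolin (10 uM) prestimulation. Values were fitted in both directions relative to DMSO, the negative control and baseline.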
# [23] = CEETOX_H295R_MTT_cell_viability: Viability Assessment in the CeeTox HT-H295R MTT Assay (AID 2283718)
structure (smiles),measurement,setting,value
CC(C)(C)c1cc(C(C)(C)C)c(O)c(C(C)(C)C)c1,outcome,[1],inactive
same,outcome,[2],inactive
same,outcome,[3],inactive
CCOCCOCCOCCO,outcome,[4],inactive
same,outcome,[5],inactive
CC(C)CC(C)O (stereo unspecified),outcome,[6],inactive
same,outcome,[7],inactive
CCCCC(CC)C(=O)O (stereo unspecified),outcome,[8],inactive
same,outcome,[1],inactive
same,outcome,[9],inactive
same,outcome,[10],inactive
COc1ccc2c(c1)c(CC(=O)O)c(C)n2C(=O)c1ccc(Cl)cc1,outcome,[6],inactive
same,outcome,[11],inactive
same,outcome,[12],inactive
C=CCOC(=O)c1ccccc1C(=O)OCC=C,outcome,[8],inactive
same,outcome,[6],inactive
same,outcome,[13],inactive
Cc1ncc([C@@H](CCCCCCc2ccc3c(n2)NCCC3)CC(=O)O)cn1,AC50,[14],active: 50 µM
same,outcome,[15],inactive
OCC(CO)(CBr)CBr,outcome,[16],inactive
same,outcome,[7],inactive
OCc1ccccc1,outcome,[6],inactive
COC(=O)C1CCC(C(=O)OC)CC1 (stereo unspecified),outcome,[6],inactive
CCCCCCCCO,outcome,[17],inactive
same,outcome,[18],inactive
same,outcome,[15],inactive
same,outcome,[19],inactive
c1ccc2c(c1)ccc1ccccc12,AC50,[20],active: 58.6 µM
same,outcome,[21],inactive
same,outcome,[22],inactive
same,outcome,[23],inactive

# — PubChem BioAssay (EPA / NIEHS)
